Source: paper PMC9911399, “Two distinct binding modes provide the RNA-binding protein RbFox with extraordinary sequence specificity”
Positions count from the first letter of the chain named. This is one part of the list.

T1: RBFOX1 RRM (Homo sapiens, UniProt Q9NWB1 109-208)
T1 sequence: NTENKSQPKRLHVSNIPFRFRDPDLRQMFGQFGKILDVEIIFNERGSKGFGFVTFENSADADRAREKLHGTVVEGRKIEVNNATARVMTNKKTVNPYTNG

B1: UCAUAUG (DNA:RNA)
RNA: GGGAGACCGGAAUUCAGAUUGUCCUCAUAUGUUAAAUCCCGUCGUAGCCACCA
DNA 1: CAATCTGAATTCCGGTCTCCC
DNA 2: TGGTGGCTACGACGGGATT
B2: UUAGAGG (DNA:RNA)
RNA: B1 RNA with C26U, U28G, U30G
DNA 1: CAATCTGAATTCCGGTCTCCC
DNA 2: TGGTGGCTACGACGGGATT
B3: GCAGGGG (DNA:RNA)
RNA: B1 RNA with U25G, U28G, A29G, U30G
DNA 1: CAATCTGAATTCCGGTCTCCC
DNA 2: TGGTGGCTACGACGGGATT
B4: UGAAGUA (DNA:RNA)
RNA: B1 RNA with C26G, U28A, A29G, G31A
DNA 1: CAATCTGAATTCCGGTCTCCC
DNA 2: TGGTGGCTACGACGGGATT
B5: UCACAAC (DNA:RNA)
RNA: B1 RNA with U28C, U30A, G31C
DNA 1: CAATCTGAATTCCGGTCTCCC
DNA 2: TGGTGGCTACGACGGGATT
B6: AAGGCGC (DNA:RNA)
RNA: GGGAGACCGGAAUUCAGAUUGUCCAAGGCGCUUAAAUCCCGUCGUAGCCACCA
DNA 1: CAATCTGAATTCCGGTCTCCC
DNA 2: TGGTGGCTACGACGGGATT
B7: AGUUUCA (DNA:RNA)
RNA: B6 RNA with A26G, G27U, G28U, C29U, G30C, C31A
DNA 1: CAATCTGAATTCCGGTCTCCC
DNA 2: TGGTGGCTACGACGGGATT
B8: UACCGAA (DNA:RNA)
RNA: B6 RNA with A25U, G27C, G28C, C29G, G30A, C31A
DNA 1: CAATCTGAATTCCGGTCTCCC
DNA 2: TGGTGGCTACGACGGGATT
B9: CGUGCCC (DNA:RNA)
RNA: B6 RNA with A25C, A26G, G27U, G30C
DNA 1: CAATCTGAATTCCGGTCTCCC
DNA 2: TGGTGGCTACGACGGGATT
B10: UAACGGC (DNA:RNA)
RNA: B6 RNA with A25U, G27A, G28C, C29G
DNA 1: CAATCTGAATTCCGGTCTCCC
DNA 2: TGGTGGCTACGACGGGATT
B11: UGGUGGA (DNA:RNA)
RNA: B6 RNA with A25U, A26G, G28U, C29G, C31A
DNA 1: CAATCTGAATTCCGGTCTCCC
DNA 2: TGGTGGCTACGACGGGATT
B12: UUGUUGG (DNA:RNA)
RNA: B1 RNA with C26U, A27G, A29U, U30G
DNA 1: CAATCTGAATTCCGGTCTCCC
DNA 2: TGGTGGCTACGACGGGATT
B13: CCCGUGU (DNA:RNA)
RNA: B6 RNA with A25C, A26C, G27C, C29U, C31U
DNA 1: CAATCTGAATTCCGGTCTCCC
DNA 2: TGGTGGCTACGACGGGATT
B14: UCUCCGC (DNA:RNA)
RNA: B6 RNA with A25U, A26C, G27U, G28C
DNA 1: CAATCTGAATTCCGGTCTCCC
DNA 2: TGGTGGCTACGACGGGATT
B15: CUAAAGU (DNA:RNA)
RNA: B1 RNA with U25C, C26U, U28A, U30G, G31U
DNA 1: CAATCTGAATTCCGGTCTCCC
DNA 2: TGGTGGCTACGACGGGATT
B16: CUUGGUA (DNA:RNA)
RNA: B6 RNA with A25C, A26U, G27U, C29G, G30U, C31A
DNA 1: CAATCTGAATTCCGGTCTCCC
DNA 2: TGGTGGCTACGACGGGATT
B17: CAGCCGU (DNA:RNA)
RNA: B6 RNA with A25C, G28C, C31U
DNA 1: CAATCTGAATTCCGGTCTCCC
DNA 2: TGGTGGCTACGACGGGATT
B18: CGUUAUA (DNA:RNA)
RNA: B1 RNA with U25C, C26G, A27U, G31A
DNA 1: CAATCTGAATTCCGGTCTCCC
DNA 2: TGGTGGCTACGACGGGATT
B19: CUGUUCG (DNA:RNA)
RNA: B1 RNA with U25C, C26U, A27G, A29U, U30C
DNA 1: CAATCTGAATTCCGGTCTCCC
DNA 2: TGGTGGCTACGACGGGATT
B20: UUGAGGA (DNA:RNA)
RNA: B6 RNA with A25U, A26U, G28A, C29G, C31A
DNA 1: CAATCTGAATTCCGGTCTCCC
DNA 2: TGGTGGCTACGACGGGATT
B21: CAUUAUA (DNA:RNA)
RNA: B1 RNA with U25C, C26A, A27U, G31A
DNA 1: CAATCTGAATTCCGGTCTCCC
DNA 2: TGGTGGCTACGACGGGATT
B22: AAUGAGC (DNA:RNA)
RNA: B6 RNA with G27U, C29A
DNA 1: CAATCTGAATTCCGGTCTCCC
DNA 2: TGGTGGCTACGACGGGATT
B23: AGACGAC (DNA:RNA)
RNA: B6 RNA with A26G, G27A, G28C, C29G, G30A
DNA 1: CAATCTGAATTCCGGTCTCCC
DNA 2: TGGTGGCTACGACGGGATT
B24: CGACACU (DNA:RNA)
RNA: B1 RNA with U25C, C26G, U28C, U30C, G31U
DNA 1: CAATCTGAATTCCGGTCTCCC
DNA 2: TGGTGGCTACGACGGGATT
B25: UUAUUAG (DNA:RNA)
RNA: B1 RNA with C26U, A29U, U30A
DNA 1: CAATCTGAATTCCGGTCTCCC
DNA 2: TGGTGGCTACGACGGGATT
B26: CUCCGAC (DNA:RNA)
RNA: B6 RNA with A25C, A26U, G27C, G28C, C29G, G30A
DNA 1: CAATCTGAATTCCGGTCTCCC
DNA 2: TGGTGGCTACGACGGGATT
B27: GCCUUCG (DNA:RNA)
RNA: B1 RNA with U25G, A27C, A29U, U30C
DNA 1: CAATCTGAATTCCGGTCTCCC
DNA 2: TGGTGGCTACGACGGGATT
B28: UAGCUAG (DNA:RNA)
RNA: B6 RNA with A25U, G28C, C29U, G30A, C31G
DNA 1: CAATCTGAATTCCGGTCTCCC
DNA 2: TGGTGGCTACGACGGGATT
B29: CGGGUGG (DNA:RNA)
RNA: B6 RNA with A25C, A26G, C29U, C31G
DNA 1: CAATCTGAATTCCGGTCTCCC
DNA 2: TGGTGGCTACGACGGGATT
B30: CUCACUU (DNA:RNA)
RNA: B6 RNA with A25C, A26U, G27C, G28A, G30U, C31U
DNA 1: CAATCTGAATTCCGGTCTCCC
DNA 2: TGGTGGCTACGACGGGATT
B31: ACCUUAG (DNA:RNA)
RNA: B1 RNA with U25A, A27C, A29U, U30A
DNA 1: CAATCTGAATTCCGGTCTCCC
DNA 2: TGGTGGCTACGACGGGATT

Molecular target: T1, RBFOX1 RRM
Assay: EMSA; HiTS-Eq, 1 nM pool, 10 min; buffer printed only for the single-RNA assays: 10 mM Tris pH 7.5, 150 mM NaCl, 3.4 mM EDTA, 0.001% NP-40, 30 C
Settings: tags: His6 N-terminal (pET28a); label: 5' 32P
In short: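 Purified RbFox RRM (wild type or mutant) was equilibrated for 10 min in 50 µL with 1 nM of a 5′-radiolabelled pool of RNA with 7 randomized nucleotides, its flanks annealed to DNA oligonucleotides, across increasing protein concentrations. Free RNA was separated by 8% native PAGE, excised, reverse-transcribed, PCR-barcoded and sequenced on an Illumina HiSeq 2500. Relative association constants came from read-count changes of each variant against the control reaction, normalised to the cognate motif.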

Row | Binder | binding signal
1 | B1 | 0.00547 KA relative to UGCAUGU
2 | B2 | 0.00624 KA relative to UGCAUGU
3 | B3 | 0.0163 KA relative to UGCAUGU
4 | B4 | 0.0152 KA relative to UGCAUGU
5 | B5 | 0.000715 KA relative to UGCAUGU
6 | B6 | 0.0081 KA relative to UGCAUGU
7 | B7 | 0.00937 KA relative to UGCAUGU
8 | B8 | 0.00574 KA relative to UGCAUGU
9 | B9 | 0.0134 KA relative to UGCAUGU
10 | B10 | 0.00772 KA relative to UGCAUGU
11 | B11 | 0.00965 KA relative to UGCAUGU
12 | B12 | 0.0248 KA relative to UGCAUGU
13 | B13 | 0.0104 KA relative to UGCAUGU
14 | B14 | 0.00688 KA relative to UGCAUGU
15 | B15 | 0.00449 KA relative to UGCAUGU
16 | B16 | 0.0154 KA relative to UGCAUGU

Row | Binder | binding signal
17 | B17 | 0.00514 KA relative to UGCAUGU
18 | B18 | 0.00282 KA relative to UGCAUGU
19 | B19 | 0.0279 KA relative to UGCAUGU
20 | B20 | 0.00625 KA relative to UGCAUGU
21 | B21 | 0.00129 KA relative to UGCAUGU
22 | B22 | 0.00453 KA relative to UGCAUGU
23 | B23 | 0.00668 KA relative to UGCAUGU
24 | B24 | 0.00458 KA relative to UGCAUGU
25 | B25 | 0.0112 KA relative to UGCAUGU
26 | B26 | 0.00912 KA relative to UGCAUGU
27 | B27 | 0.0176 KA relative to UGCAUGU
28 | B28 | 0.0203 KA relative to UGCAUGU
29 | B29 | 0.0171 KA relative to UGCAUGU
30 | B30 | 0.00341 KA relative to UGCAUGU
31 | B31 | 0.00468 KA relative to UGCAUGU
